According to the supplement of paper PMC10126150:
Sequences with one replicate were seen in a single cluster, so their values are uncertain.

Tested on: ATP
Experiment: switch fluorescence ratio, 500 uM ATP over buffer (Cy3 cluster intensity, sum of 5 cycles each) (fold (ratio)); higher = stronger signal-on switching upon ATP binding; sequences stand for … in TCGTCGGCAGCGTCAGATGTGTATAAGAGACAGTTTTTTTTTTTTTTTTTTTTTTTTT…TC
Conditions: aptamer strand: ATP DNA aptamer (quencher-CACCTGGGGGAGTATTGCGGAGGAAGG + anchor), 100 nM annealed; ATP concentration: 500 uM; one replicate
Outline: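 Between each of five buffer/ATP cycles, the flow-cell was stripped with NaOH and re-annealed. Each cycle imaged Cy3-labelled switching-strand clusters, annealed to 100 nM quencher-labelled ATP aptamer on a modified Illumina MiSeq flow-cell, first in selection buffer and then after 15 min with 500 uM ATP at 22 °C. The fluorescence ratio is summed target-cycle over summed buffer-cycle Cy3 intensity per cluster, averaged per switch-domain sequence, with clusters outside 100-1000 RFU excluded.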
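Also: ATP exposure 15 min at 22 °C before imaging.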

Row | Sequence | switch fluorescence ratio
1 | CAGAGTATTT | 0.991
2 | AGAGCTTAGC | 0.983
3 | ACTGGTGCTC | 1.09
4 | TGAGGCTTGT | 0.901
5 | CCACATCCGC | 1.51
6 | TGGTGAAGG | 0.977
7 | TAGTAAGCCC | 1.06
8 | TCAAGCCAGC | 0.982
9 | TAGAAAACA | 1
10 | TGGGGAAG | 0.978
11 | CTCTTTTTAT | 1.02
12 | AAGGTCCTAG | 0.949
13 | TTATCTCGGC | 1.06
14 | TCGCGTGGGT | 1.01
15 | ACAGGCTAGG | 0.978
16 | ATAGGCTTGT | 1
17 | ATACTACCAG | 1.07
18 | CGTTCAAACT | 1.06
19 | GTTCTTAAC | 1.03
20 | GAATTAGAAT | 0.96
21 | TGTGGACGGC | 0.995
22 | TGCGCATTTT | 1.56
23 | TCGCGCGGCA | 1.01
24 | GGATTTCCCA | 1.02
25 | CCAGGTATAT | 1.08
26 | ACCTTTTACT | 1.12

Row | Sequence | switch fluorescence ratio
27 | CTTTTGCATA | 1.23
28 | AAGGATTCGA | 1
29 | GAAAAGTACT | 1.06
30 | GAAAAGATTT | 0.98
31 | TGTCCTTTTG | 1.03
32 | ATCGGTTTAT | 1.11
33 | TTTTCACCAG | 1.04
34 | TCGAGTATTT | 1
35 | GTCTGACCAG | 1.05
36 | CTATCTTACG | 1.11
37 | TTCGATGTG | 0.981
38 | TATGCATTTT | 0.998
39 | ATTGCTAAAG | 0.973
40 | CGGGCATGTT | 1.01
41 | TAATTCCTCT | 1.02
42 | GGTCGTATCG | 0.928
43 | GCACACTTCT | 1
44 | AAGGCCAGAT | 0.966
45 | TCAGTTTTG | 1.04
46 | ACTATTATGC | 1.13
47 | AACGTTTTGT | 0.988
48 | CTATATTCTA | 0.98
49 | AGGGTGAGTG | 1.03
50 | CAAGTGCAAC | 0.976
51 | GGGAAATAAC | 1.05
52 | TCGGTCTAGG | 1.04

Row | Sequence | switch fluorescence ratio
53 | TATGGGGAAA | 1.02
54 | GGGATGTAGA | 0.996
55 | CTAGTGGTGG | 0.979
56 | CATAAAATGT | 0.982
57 | CAGCGTCCGA | 1.02
58 | GCTTGTATAT | 0.97
59 | TCAGACTCCT | 2.11
60 | GACCATTCCG | 0.955
61 | TGTGGTGAGG | 1.01
62 | TGCGGGCTGG | 1.01
63 | AAAGCTACGC | 1.08
64 | AACTTACCGC | 1.34
65 | AGGAAAAAAC | 1.23
66 | GAGACTTGAT | 0.991
67 | CGTATTAATA | 1.02
68 | GGCCATCTGA | 0.998
69 | AAGAAAAATA | 1.03
70 | TAATTTCGTA | 0.932
71 | ATACAGTGGG | 1.01
72 | GACCAGCAGC | 1.17
73 | TCTCGTCATT | 1.03
74 | AGCTAGGACC | 1.03
75 | ACATGACCGA | 1.16
76 | CATGTAACG | 1.04
77 | CATAGAGGGC | 0.948
